Variants at the floor of the assay are shown more often than the library holds them.
B1: tRNA (parent)
chain: CUCUCGGUAGCCAAGUUGGUUUAAGGCGCAAGACUUUAAUUUAUCACUACGAAAUCUUGAGAUCGGGCGUUCGACUCGCCCCCGGGAGAUUUUUUCCUCGAGCAA

Variants of: B1
Assay: nonsense suppression (GFP-seq) (ratio to wild type); higher = more function; SUP4oc tRNA, yeast GFP reporter sort-seq
Outline: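 Nonsense suppression (GFPSEQ) is the median GFP/RFP ratio of each sorting bin, weighted by the variant's estimated share of cells in that bin and expressed relative to the unmutated parent tRNA. Yeast strains carried genome-integrated variants of an ochre-suppressor tRNA from a library with ~3% random mutations, plus a galactose-driven GFP ochre reporter and RFP, and were grown in raffinose/galactose medium containing 80 mg/L adenine. Cells were sorted into GFP/RFP bins, each bin was Illumina-sequenced (phred ≥30), and variants were kept only with ≥100 reads and ≥30 cells.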

Nonsense suppression, 0.0458:
G6A A13U

Nonsense suppression, ≤ 0.026:
C5U U22G C34A
C5U G59A U76G
C5G A14G
G6A
G6A G69C
G6A A9U A33U A54G U58A G85A
C5U A23C G61C G69A
C5G U55C G69C G86U
C5G G25C G28U U58A
G6A A30G C80A
C5G C12G C29G U63C
C5G G61A C81G
C5G C12G U16C G32A
G6A G10A A33G
C5U G32U U70A C75A
C5U A13G G32C C80G
G6A A9U
C5U A74U U76A
C5G U58G U76A
C5A U16C
C5U U8C G65A
C5U A13G U63G U76A C82A
C5U C11U U17C U70A
C5G G19C A87U
G6A G19U U55C
C5U C11U U76A C79G
C5A G25U
C5U G6C
G6A A13G
C5U G18A
C5U U17C G19U U20G G25U
C5U G66U G78A
C5G U71G
C5G U71C
C5A U55G C81A G88A
C5U A14C C83G A87C
G6A C12G
C5G A23C G67U A89G
C5U G10U U58A A60C G66C U76A
C5U C11U
C5U A74C
C5U C81G
C5U A62G C77G C80G
C5U G15C
C5U G28A A30G
C5G G25C U55A
C5A G28U A62C
C5A U21C C34U G59U C80G
C5G C11A G15U A87C
C5A U8C G15C A60C
C5A G61U C79U
C5A G18C G65U U71A
C5G U20G C34G
C5G G7U C11G
G6A A23U G85A
C5A U16G C27A G65C G86U
C5U A89C
C5U U8G G88A
C5U U22G
C5G G86C
C5U A30G
C5U G10U G15C C34G U63A
C5G A9G C75G
C5G C56G U58C C79A
C5U G6A C11A G25A
C5G G6A A33U U35G U70C
C5A U58A G78C
C5A G61A U63C C77G
C5G C29G
C5G A23U G78U
C5U A13U A23U G88C
G6A G61C C79A
G6A G7A G69U
C5U G6U U16A
C5U G19U A54G U58G
C5U G26A C27G G28C U55C U58G U70A G88U A89G
C5G C72G G85C A89G
C5U U21A A23G U70A
C5U A24C G25C C72A A89G
C5G U16C C34A G69U C72G
C5G U57A
C5G U76G
G6A A13G A62C U63G U71C G86A
G6A G18U G28A C34U
C5U A23G A54G G61A
C5G A14U U20C C27G
C5U G10U A14C A87C
C5G G67A
C5G U20A A60C C64A
C5G A24G G25C C81A
C5U U63C G65U
C5U A9U G25C U35A G59U
C5U A54G
C5A U55A C56U
C5U G32C G66U C68U
C5U A54U A62C
C5U U57C G84A
C5U G6C G15U C29A
C5U C80A
C5G G19U U57C
G6A G26A
C5G C68G
C5G G19C A89U
C5G G10C U57G C68A
G6A A13G U17A
C5A U16G U55C U71G C83G
C5G G19A A62U
C5U C56U A60C C68G
C5G U8C
G6A A9U A24G U63A
C5U G15A A31C U35C
C5A U16G G88U
C5U A14G G19A
C5G C12A G59U
C5U G78A
C5U U21A U57C A62G
C5U G26C G65C U76A
C5G G69C C72A C77G
G6A G15A G32C
C5U C12U U21C
C5U C11A G61C G84C G85A
C5G C83A
C5U G7C A14C G88A
C5U C68A
C5U C27A A30C U57G A87U
C5U U8G C11A A24C A89U
C5G U20G C75G G88U
C5G U20G
C5G A89U
C5U A62U G69C A87U
C5U G69A
C5U U35A U58G C72A
G6A A33U
C5G G10C U57C
C5U C12G A13G C29A
G6A C11G U17A
C5A G19U U55G A60U
C5A G25C A54G A89U
G6A G25U A33G
C5U G32A
C5G G73U A89C
G6A A23U U58G
C5A U76A
C5U A14U G28U G66C C79A
C5G U35A U63A U76A C80U
C5A U21C C34A
G6A G25C C72A
C5A G18C U71G G88A
C5A G18U U76C G86A
G6A G19C G78A
G6A A62C G67U
C5G A62U C82U
C5U U21A
C5G C56A G61A C68U
C5U G59U G66C U71G A74C
C5U U17A G86A
C5U A31G U71C
C5U G61C G67U A74G
C5A U16C G85C A89C
C5U C12A A60C C64G
C5U U22G C27U
C5A U16A A62U U71C G73A
C5U G18U U21C A60C

Nonsense suppression, 0.0314:
C5U G61A

Nonsense suppression, 0.0324:
C5U A9G

Nonsense suppression, 0.0802:
G6A A13G U20G C34A G73A

— the RNAGym collection of RNA variant scans (doi:10.1101/gad.245936.114)
